Test results reported in the supplement of paper PMC7125110.
± gives the standard error. Variants at the background level are over-represented here.

B1: glmS ribozyme (parent)
chain: AUAAAAGCGCCAGAACUACAGAAAUGUAGUUGACGAGGAGGAGGUUUAUCGAAUUUUCGGCGGAUGCCUCCAAA

Legend:
Conditions in all cases: with glucosamine-6-phosphate
glucosamine-6-phosphate [1] = variants of: B1; assay: self-cleavage kobs at 640 uM GlcN6P; higher = faster cleavage; RNA array
Outline: (§1)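 A hybridised Cy3 probe tracked barcoded ribozyme variants, transcribed in situ by E. coli RNA polymerase on sequenced MiSeq chips, at 37 °C. The variants received 40 μM to 10 mM glucosamine-6-phosphate in HEPES/KCl/Mg(OAc)2 buffer. kobs came from decay fits and kcat and KM from weighted Michaelis–Menten fits.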

glucosamine-6-phosphate [2] = variants of: B1; assay: self-cleavage kobs at 2500 uM GlcN6P; higher = faster cleavage; RNA array
Outline: as §1

glucosamine-6-phosphate [3] = variants of: B1; assay: self-cleavage kobs at 10000 uM GlcN6P; higher = faster cleavage; RNA array
Outline: as §1

glucosamine-6-phosphate [4] = variants of: B1; assay: self-cleavage kobs at 160 uM GlcN6P; higher = faster cleavage; RNA array
Outline: as §1

Variant | self-cleavage kobs at 640 uM GlcN6P (glucosamine-6-phosphate [1]) [s⁻¹] | self-cleavage kobs at 2500 uM GlcN6P (glucosamine-6-phosphate [2]) [s⁻¹] | self-cleavage kobs at 10000 uM GlcN6P (glucosamine-6-phosphate [3]) [s⁻¹] | self-cleavage kobs at 160 uM GlcN6P (glucosamine-6-phosphate [4]) [s⁻¹]
AUAAAAGCGCCAGAACUACAGAAAUGUAGUUGACGAGGAGGAGGUUAAUCGCAUUUUCGGCGGAUGCCUCAAAA [U47A A52C C71A] | < 1e-05 | < 1e-05 | – | –
AUAAAAGCGCCAGAACUACAGAAAUGUAGUUGACGAGGAGGAGGUUUCUCGAAUUUUCGGCGAAUGCCUCCAAA [A48C G63A] | < 1e-05 | < 1e-05 | – | –
AUAAAAGCGCCAGAACUACAGAAAUGUAGUUGACGAGGAGGAGGUGUAUCGAAUUUUCGGCGGAUGCGUCCAAA [U46G C68G] | 5.11e-05 ± 1.8e-05 | 7.97e-05 ± 1.8e-05 | 9.69e-05 ± 1.7e-05 | –
AUAAAAGCGCCAGAACUACAGAAAUGUAGUUGACGAGGAGGAGGUCUAGCGAAUUUUCGGCGGAUGCCUCCAAA [U46C U49G] | 4.66e-05 ± 1.2e-05 | 8.96e-05 ± 1.6e-05 | – | –
AUAAAAGCGCCAGAACUACAGAAAUGUAGUUGACGAGGAGGAGGUUGAUCGAGUUUCCGGCGGAUGCUUCCAAA [U47G A53G U57C C68U] | 3.09e-05 ± 1.2e-05 | 3.84e-05 ± 1.3e-05 | 8.44e-05 ± 1.8e-05 | –
AUAAAAGCGCCAGAACUACAGAAAUGUAGUUGACGAGGAGGAGGUUGAUCUAAUUUUCGGCGGAUGCCUCCAAA [U47G G51U] | < 1e-05 | – | – | –
AUAAAAGCGCCAGAACUACAGAAAUGUAGUUGACGAGGAGGAGGUUGACCGAAUUUUCGGCGGAUGCCUCCAAA [U47G U49C] | < 1e-05 | < 1e-05 | – | –
AUAAAAGCGCCAGAACUACAGAAAUGUAGUUGACGAGGAGGAGGUGUAUCGAAUUGUCGGCGGAUGCCUUCAAA [U46G U56G C70U] | 0.000436 ± 9.2e-05 | 0.00119 ± 0.00031 | – | 0.000211 ± 5.3e-05
AUAAAAGCGCCAGAACUACAGAAAUGUAGUUGACGAGGAGGAGGUUUUUCGAAUUUUUGGCGGCUGCCUCCAAA [A48U C58U A64C] | < 1e-05 | < 1e-05 | – | –
AUAAAAGCGCCAGAACUACAGAAAUGUAGUUGACGAGGAGGAGGUUGAUCAGAUUUUCGGCGGAGGCCUCCAAA [U47G G51A A52G U65G] | < 1e-05 | < 1e-05 | – | –
AUAAAAGCGCCAGAACUACAGAAAUGUAGUUGACGAGGAGGAGGUUCAUCGAAUUUUCGGCGGAUGCCUGCAAA [U47C C70G] | 0.000172 ± 3.5e-05 | 0.00012 ± 3e-05 | 0.000256 ± 0.0001 | 7.93e-05 ± 2.2e-05
AUAAAAGCGCCAGAACUACAGAAAUGUAGUUGACGAGGAGGAGGUCUAUCCCAUUUUCGGCGGAUGCCUCCAAA [U46C G51C A52C] | < 1e-05 | < 1e-05 | – | < 1e-05
AUAAAAGCGCCAGAACUACAGAAAUGUAGUUGACGAGGAGGAGGUUUUUCGAAUUUUCGGCGGAUGCCUCUAAA [A48U C71U] | 0.000153 ± 2.3e-05 | 0.000338 ± 5.6e-05 | 0.000461 ± 5.6e-05 | –
AUAAAAGCGCCAGAACUACAGAAAUGUAGUUGACGAGGAGGAGGUGUAUCGAAUUUCCGUCGGAUGCCUCCAAA [U46G U57C G60U] | < 1e-05 | – | – | –
AUAAAAGCGCCAGAACUACAGAAAUGUAGUUGACGAGGAGGAGGUGUAUCGUAUUUUUGGCGGGUGCCUCCAAA [U46G A52U C58U A64G] | < 1e-05 | < 1e-05 | – | –
AUAAAAGCGCCAGAACUACAGAAAUGUAGUUGACGAGGAGGAGGUGUAUCGCAUUUUCGGCGGAUGCCUCCAAA [U46G A52C] | < 1e-05 | – | < 1e-05 | < 1e-05
